Consider nine variants from the supplement of paper PMC12217912.

B1: TEV protease; numbered along this chain (parent)
chain: MGESLFKGPRDYNPISSSICHLTNESDGHTTSLYGIGFGPFIITNKHLFRRNNGTLVVQSLHGVFKVKDTTTLQQHLVDGRDMIIIRMPKDFPPFPQKLKFREPQREERICLVTTNFQTKSMSSMVSDTSCTFPSGDGIFWKHWIQTKDGQCGSPLVSTRDGFIVGIHSASNFTNTNNYFTSVPKNFMELLTNQEAQQWVSGWRLNADSVLWGGHKVFMVKPEEPFQPVKEATQL

Variants of B1 are the subject of the test. The test can be described thus: raw area under fraction-flipped curve 0-4 h after induction (AUC4h, not background-subtracted), DNA-recorder readout of cleavage of the substrate (dimensionless); higher = more cleavage of the substrate by the protease variant. To be noted: temperature: 34 °C; time window: 0-4 h after rhamnose induction.

The list shows a part of the results. The full chains were built here from the parent and the listed change. Inactive controls read about 0.05.
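Note: Bxb1 expression induced with 0.2% (w/v) L-rhamnose at OD600 near 0.5, cultures sampled hourly, flipped fraction per protease–substrate barcode pair counted by paired-end Illumina sequencing.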

For MGESLFKGPRDYNPISSSICHLTNESDGHTTSLYGIGFGPFIITNKHLFRRNNGTLVPQSLHGVFKVKDTTTLQQHLVDGRDMIIIRMPKDFPPFPQKLKFREPQREERICLVTTNFQTKSMSSMVSDTSCTFPSGDGIFWKHWIQTKDGQCGSPLVSTRDGFIVGIHSASNFTNTNNYFTSVPKNFMELLTNQEAQQWVSGWRLNADSVLWGGHKVFMVKPEEPFQPVKEATQL [V58P], the “area with substrate ENLYFES” value amounted to 0.0331, the “area with substrate ENLYFPS” value is 0, the “area with substrate ENLYFRS” value worked out at 0.0354 and the “area with substrate ENLYFTS” value is 0.0281.
Turning to MGESLFKGPRDYNPISSSICHLTNESDGHTTSLYGIGFGPFIITNKHLFRRNNGTLVVQSLHGVFKVKDTTTLQQHLVDGRDMIIIRMPKDFPPFPQKLKFREPQREERICLVTTNFQTKSMSSMVSDTSCTFPSGDGIFWKHWIQTKDGQCGSPLVSTRDGFIVGIHSASNFTNTNNYFTSVPKNFMELLTNQEAQQWVSGWRLNADSVLWGGHMVFMVKPEEPFQPVKEATQL [K216M], the “area with substrate ENLYFES” value was 0.0558, the “area with substrate ENLYFFS” value worked out at 0.0719, the “area with substrate ENLYFIS” value came to 0.0665 and the “area with substrate ENLYFKS” value worked out at 0.0467. Further, the “area with substrate ENLYFMS” value was found to be 0.0531, the “area with substrate ENLYFNS” value was 0.0701 and the “area with substrate ENLYFYS” value was 0.0472.
With MGESLFKGPRDYNPISSSICHGTNESDGHTTSLYGIGFGPFIITNKHLFRRNNGTLVVQSLHGVFKVKDTTTLQQHLVDGRDMIIIRMPKDFPPFPQKLKFREPQREERICLVTTNFQTKSMSSMVSDTSCTFPSGDGIFWKHWIQTKDGQCGSPLVSTRDGFIVGIHSASNFTNTNNYFTSVPKNFMELLTNQEAQQWVSGWRLNADSVLWGGHKVFMVKPEEPFQPVKEATQL [L22G], the “area with substrate ENLYFES” value turned out to be 0.0527, the “area with substrate ENLYFFS” value was found to be 0.0627, the “area with substrate ENLYFIS” value amounted to 0.0323 and the “area with substrate ENLYFKS” value amounted to 0.0461. Besides, the “area with substrate ENLYFLS” value was 0.0375, the “area with substrate ENLYFMS” value stood at 0.0416, the “area with substrate ENLYFNS” value is 0.0553 and the “area with substrate ENLYFPS” value is 0.0305. Moreover, the “area with substrate ENLYFRS” value was found to be 0.0267 and the “area with substrate ENLYFTS” value was 0.0223.
In the case of MGESLFKGPRDYNPISSSICHLTNESDGHTTSLYGIGFGPFIITNKHLFRRNNGTLVVQSLKGVFKVKDTTTLQQHLVDGRDMIIIRMPKDFPPFPQKLKFREPQREERICLVTTNFQTKSMSSMVSDTSCTFPSGDGIFWKHWIQTKDGQCGSPLVSTRDGFIVGIHSASNFTNTNNYFTSVPKNFMELLTNQEAQQWVSGWRLNADSVLWGGHKVFMVKPEEPFQPVKEATQL [H62K], the “area with substrate ENLYFES” value is 0.0743, the “area with substrate ENLYFFS” value was determined as 0.074, the “area with substrate ENLYFHS” value is 0.0652 and the “area with substrate ENLYFIS” value turned out to be 0.0639. Also, the “area with substrate ENLYFKS” value stood at 0.0614, the “area with substrate ENLYFMS” value was 0.0665, the “area with substrate ENLYFPS” value stood at 0.06 and the “area with substrate ENLYFSS” value worked out at 0.0557. Moreover, the “area with substrate ENLYFTS” value stood at 0.0557 and the “area with substrate ENLYFVS” value turned out to be 0.0502.
As to MGESLFKGPRDYNPISSSICHLTNESDGHTTSLYGIGFGPFIITNKHLFRRNNGTLVVQSLHGVFKVKDTTTLQQHLVDGRDMIIIRMPKDFPPFPQKLKFREPQREERICLVTTNFQTKSMSSMVSDTSCTFPSGDGIFWKHWIQTKDGQCGSPLVSTRDGFIVGIHSASNFTNTNNYFTSVPKNFMELLTNQEAQQWVSGWRLNADSVLWGGHKVFMVKPQEPFQPVKEATQL [E223Q], the “area with substrate ENLYFES” value was found to be 0.0601, the “area with substrate ENLYFIS” value came to 0.0633, the “area with substrate ENLYFKS” value turned out to be 0.0597 and the “area with substrate ENLYFPS” value worked out at 0.0505. For the same variant, the “area with substrate ENLYFSS” value was 0.0489, the “area with substrate ENLYFTS” value turned out to be 0.0437 and the “area with substrate ENLYFVS” value was determined as 0.0108.
Consider MGESLFKGPRDYNPISSSICHLTNESDGHTTSLYGIGFGPFIITNKHLFRRNNGTLVVQSLHGVFKVKDTTTLQQHLVDGRDMIIIRMPKDFPPFPQKLKFREPQREERICLVTTNFQTKSMSSMVSQTSCTFPSGDGIFWKHWIQTKDGQCGSPLVSTRDGFIVGIHSASNFTNTNNYFTSVPKNFMELLTNQEAQQWVSGWRLNADSVLWGGHKVFMVKPEEPFQPVKEATQL [D128Q], for which the “area with substrate ENLYFES” value turned out to be 0.0485, the “area with substrate ENLYFFS” value stood at 0.0769, the “area with substrate ENLYFHS” value was found to be 0.0281 and the “area with substrate ENLYFIS” value turned out to be 0.0563. The “area with substrate ENLYFKS” value turned out to be 0.065, the “area with substrate ENLYFMS” value turned out to be 0.0668, the “area with substrate ENLYFNS” value is 0.0647 and the “area with substrate ENLYFPS” value is 0.0663. Moreover, the “area with substrate ENLYFRS” value was determined as 0.0703, the “area with substrate ENLYFSS” value amounted to 0.0695, the “area with substrate ENLYFTS” value came out at 0.0536 and the “area with substrate ENLYFVS” value stood at 0.0619. For the same variant, the “area with substrate ENLYFWS” value stood at 0.054 and the “area with substrate ENLYFYS” value was 0.0628.
Take MGESLFKGPRDYNPISSSICHLTNESDGHTTSLYGIGFGPFIITNKHLFRRNNGTLVVQSLHGVFKVKDTTTLQQHLVDGRDMIIIRMPKDFPPFPQKLKFREPQREERICLVTTNFQTISMSSMVSDTSCTFPSGDGIFWKHWIQTKDGQCGSPLVSTRDGFIVGIHSASNFTNTNNYFTSVPKNFMELLTNQEAQQWVSGWRLNADSVLWGGHKVFMVKPEEPFQPVKEATQL [K120I]: the “area with substrate ENLYFES” value worked out at 0.0788, the “area with substrate ENLYFFS” value is 0.0646, the “area with substrate ENLYFGS” value turned out to be 0.0651 and the “area with substrate ENLYFHS” value was found to be 0.0377. Besides, the “area with substrate ENLYFIS” value came to 0.0503, the “area with substrate ENLYFLS” value is 0.0437, the “area with substrate ENLYFMS” value was 0.0702 and the “area with substrate ENLYFPS” value was 0.0573. In addition, the “area with substrate ENLYFRS” value came to 0.0531, the “area with substrate ENLYFSS” value was found to be 0.0502, the “area with substrate ENLYFTS” value was 0.0559 and the “area with substrate ENLYFVS” value stood at 0.065.
For MGESLFKGPRDYNPISSSICHLTNESDGHTTSLYGIGFGPFIITNKHLFRRNNGTLVVQSLHGVFKVKDTTTLQQHLVDGRDMIIIRTPKDFPPFPQKLKFREPQREERICLVTTNFQTKSMSSMVSDTSCTFPSGDGIFWKHWIQTKDGQCGSPLVSTRDGFIVGIHSASNFTNTNNYFTSVPKNFMELLTNQEAQQWVSGWRLNADSVLWGGHKVFMVKPEEPFQPVKEATQL [M88T], the “area with substrate ENLYFES” value was 0.0404, the “area with substrate ENLYFKS” value amounted to 0.0538, the “area with substrate ENLYFPS” value turned out to be 0.0587 and the “area with substrate ENLYFRS” value worked out at 0.0581. Moreover, the “area with substrate ENLYFVS” value amounted to 0.0482 and the “area with substrate ENLYFWS” value is 0.0582.
MGESLFKGPRDYNPISSSICHLTNESDGHTTSLYGIGFGPFIITNKHLFRRNNGTLVVQSLHGVFKVKDTTTLQQHLVDGRDMIIIRMPKDFPPFPQKLKFREPQREERICLVTTNFQTKSMSSMVSDTSCTFPSGDGIFWKHWIQTKDGQCGSPLVSTRDGFIVGIHSASNFTNTNNYFTSVPKNFMELLTNQEAYQWVSGWRLNADSVLWGGHKVFMVKPEEPFQPVKEATQL [Q197Y]: the “area with substrate ENLYFES” value was 0.0672, the “area with substrate ENLYFFS” value was 0.115, the “area with substrate ENLYFIS” value turned out to be 0.0544 and the “area with substrate ENLYFKS” value was determined as 0.0698. The “area with substrate ENLYFMS” value was found to be 0.0634 and the “area with substrate ENLYFRS” value amounted to 0.0586.
